In publication PMC4336329 (PLoS ONE, 2015):
The campaign covered roughly 310,000 compounds. About 2,200 (0.71%) showed an effect of 50% or more. Effects have a minus sign here. Some of the results follow.

Each compound was assayed against human ether-à-go-go-related gene (hERG) potassium channel (human, UniProt Q12809) (assay: primary screen, population patch clamp on CHO cells stably expressing hERG).
Sequence of human ether-à-go-go-related gene (hERG) potassium channel (Q12809 whole entry, looked up): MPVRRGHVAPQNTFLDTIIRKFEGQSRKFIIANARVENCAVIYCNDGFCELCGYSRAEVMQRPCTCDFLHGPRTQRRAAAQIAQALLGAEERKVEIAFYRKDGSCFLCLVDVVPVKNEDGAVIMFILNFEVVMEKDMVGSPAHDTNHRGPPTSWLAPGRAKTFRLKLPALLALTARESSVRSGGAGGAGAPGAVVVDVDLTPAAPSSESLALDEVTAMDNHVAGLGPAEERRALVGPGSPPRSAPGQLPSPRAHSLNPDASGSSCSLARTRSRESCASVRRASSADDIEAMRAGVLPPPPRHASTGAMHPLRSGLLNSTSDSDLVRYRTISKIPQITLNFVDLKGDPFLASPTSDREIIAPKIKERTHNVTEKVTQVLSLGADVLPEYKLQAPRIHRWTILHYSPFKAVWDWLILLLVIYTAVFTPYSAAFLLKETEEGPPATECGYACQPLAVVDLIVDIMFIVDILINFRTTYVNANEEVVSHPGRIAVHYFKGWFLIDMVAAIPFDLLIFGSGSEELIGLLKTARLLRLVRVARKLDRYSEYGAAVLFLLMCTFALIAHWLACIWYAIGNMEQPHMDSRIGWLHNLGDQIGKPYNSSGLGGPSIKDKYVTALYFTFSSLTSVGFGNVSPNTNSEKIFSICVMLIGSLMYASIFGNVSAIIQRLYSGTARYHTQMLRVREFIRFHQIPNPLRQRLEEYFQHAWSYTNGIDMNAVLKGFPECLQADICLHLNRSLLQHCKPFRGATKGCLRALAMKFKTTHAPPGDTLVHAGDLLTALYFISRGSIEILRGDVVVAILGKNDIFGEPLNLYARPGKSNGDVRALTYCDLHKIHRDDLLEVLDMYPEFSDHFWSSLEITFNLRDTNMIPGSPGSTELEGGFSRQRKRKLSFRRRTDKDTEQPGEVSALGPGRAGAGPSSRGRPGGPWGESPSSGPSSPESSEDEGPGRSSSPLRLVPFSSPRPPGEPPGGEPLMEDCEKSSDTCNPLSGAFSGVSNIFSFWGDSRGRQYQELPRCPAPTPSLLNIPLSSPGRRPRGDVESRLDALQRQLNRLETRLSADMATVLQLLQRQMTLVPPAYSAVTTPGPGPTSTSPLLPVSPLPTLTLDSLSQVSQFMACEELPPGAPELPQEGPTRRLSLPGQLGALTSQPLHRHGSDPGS

Compound | hERG current change (%, negative = inhibition) at 1uM [%]
Cc1cc(=O)oc2cc(OC(C)C(=O)NCCCn3ccnc3)ccc12 (stereo not shown) | 11.7
CN(CC(=O)Nc1cccc(F)c1)C(=O)C1=COCCO1 | 12.5
Cc1nnsc1S(=O)(=O)c1ccccc1 | 13
O=c1[nH]c(/C=C\c2ccc(O)c(Cl)c2)nc(O)c1[N+](=O)[O-] | 15.1
COc1cccc(CN(CC(=O)NC2CCCC2)C(=O)Cn2nnc(-c3cccs3)n2)c1 | -2.33
CCOc1ccccc1-c1nc(CN(Cc2cnn(C)c2)C(C)C)c(C)o1 | 2.34
CNCc1ccccc1Sc1cc(O)ccc1O.O=C(O)/C=C\C(=O)O | 0.899
CCN(CC)c1ccc(NC(=O)CCS(=O)(=O)c2ccc(Br)cc2)c(C)c1 | 4.74
Nc1ccccc1SC1CC(=O)N(c2ccccc2Cl)C1=O (stereo not shown) | 15.2
COc1ccc2nc(C)cc(SCC(=O)N/N=C/c3ccc(O)cc3O)c2c1 | 11.1
C(=N\Nc1ccc2ccccc2n1)/c1ccc2c(c1)OCO2 | 4.64
O=C(O)/C=C/C(=O)NNc1ncnc2ccccc12 | 11.3
O=C(Nc1ccccc1N1CCCC1)C1CCN(C(=O)c2ccc(F)cc2)CC1 | -2.69
O=C(O)C1C2C=CC(C2)C1C(=O)NC(c1ccccc1)c1ccccc1 (stereo not shown) | -6.68
CCNC(=S)N1CCN(C(=O)C(Cc2ccccc2)NC(C)=O)CC1 (stereo not shown) | 6.07
N#C/C(C(=O)Nc1ccc(Cl)cc1)=C(/S)Nc1ccccc1 | 16.8
COC(=O)C1=C(C)N(Cc2ccccc2)C(=S)N[C@H]1c1cccc(F)c1 | 3.22
COc1ccc(CCNc2ncnc3sc(C)cc23)cc1OC.Cl | 9.79
CC(=O)Nc1ccc(S(=O)(=O)NCCCCNS(=O)(=O)c2ccc(NC(C)=O)cc2)cc1 | 30.1
CC(C)(CN=C1NS(=O)(=O)c2ccccc21)CNC(=O)CN1C(=O)c2ccccc2C1=O | -1.01
Cc1cc(O)ccc1N=Cc1c(C(F)(F)F)[nH][nH]c1=O | 9.76
CCC(NC(=O)c1cccc(Cn2cc([N+](=O)[O-])cn2)c1)c1ccc(C(C)C)cc1 (stereo not shown) | 15.5

Compound | hERG current change (%, negative = inhibition) at 1uM [%]
CC(=O)c1ccc(S(=O)(=O)Nc2ccc(-c3ccc4nncn4n3)cc2)cc1 | 0.626
CC(C)(C)CC(C)(C)N1CNC(=S)NC1 | 10.7
O=C(c1cccnc1)N1CCc2ccccc2C1 | 10.6
CC(=O)c1ccc(N2CCN(CC(=O)N(CC(C)C)c3c(N)n(CC(C)C)c(=O)[nH]c3=O)CC2)cc1 | 13.7
O=C(/C=C/c1ccc(F)cc1)NC(=S)Nc1ccccc1 | -2.57
CC1CN(c2ccc(C(=O)c3ccccc3C(=O)O)cc2[N+](=O)[O-])CC(C)O1 (stereo not shown) | 8.41
O=C(Nc1ccccc1N1CCOCC1)c1ccc2c(c1)OCO2 | 2.69
CC(NC(=O)NCc1cccnc1)(C(F)(F)F)C(F)(F)F | 16.6
CCOC(=O)Nc1cccc(C(=O)O)c1 | 3.58
CC(C)C[C@@H](CO)NC(=O)CC[C@H](NC(=O)OC(C)(C)C)C(=O)N(Cc1ccccc1)Cc1ccccc1 | 16
Nc1nnnn1/N=C/c1ccc(Cl)cc1 | 6.7
CCCC(NS(=O)(=O)c1ccc(OC)cc1)C(=O)O (stereo not shown) | 9.82
Br.COc1ccc(-c2nc3n(c2C)CCC3)cc1 | -2.17
CC(=O)c1cccc(N(C(=O)CS(=O)CC(=O)Nc2ccc(F)cc2)C(C(=O)NC2CCCCC2)c2ccc(C)o2)c1 (stereo not shown) | 9.67
N#Cc1ccc(C(=O)NCC2CCCCC2)cc1 | 2.28
O=c1oc2ccccc2c(O)c1C(c1ccccn1)c1c(O)c2ccccc2oc1=O | 17.3
O=C(NCc1cccnc1)c1cccc(S(=O)(=O)N2CCOCC2)c1 | 14.4
N#CC(C#N)=C(Nc1ccc(F)cc1)SCc1cccc(F)c1 | 3.39
CC(=O)c1cccc(NC(=O)CCCN(C)S(=O)(=O)c2ccc(F)cc2)c1 | 15.1
CCc1ccc(C(=O)COC(=O)CNC(=O)c2ccc(Br)o2)cc1 | -10.3
CCCNC(=O)CSc1nc(COc2ccccc2)nc2ccccc12 | 4.6
